Experimental data published in publication PMC4336329 (PLoS ONE, 2015).
The campaign covered roughly 310,000 compounds. About 2,200 (0.71%) showed an effect of 50% or more. The effect is printed as a negative number. This is one part of the list.

Target: human ether-à-go-go-related gene (hERG) potassium channel (human, UniProt Q12809)
Assay: primary screen, population patch clamp on CHO cells stably expressing hERG

Chain of human ether-à-go-go-related gene (hERG) potassium channel (Q12809 whole entry, looked up): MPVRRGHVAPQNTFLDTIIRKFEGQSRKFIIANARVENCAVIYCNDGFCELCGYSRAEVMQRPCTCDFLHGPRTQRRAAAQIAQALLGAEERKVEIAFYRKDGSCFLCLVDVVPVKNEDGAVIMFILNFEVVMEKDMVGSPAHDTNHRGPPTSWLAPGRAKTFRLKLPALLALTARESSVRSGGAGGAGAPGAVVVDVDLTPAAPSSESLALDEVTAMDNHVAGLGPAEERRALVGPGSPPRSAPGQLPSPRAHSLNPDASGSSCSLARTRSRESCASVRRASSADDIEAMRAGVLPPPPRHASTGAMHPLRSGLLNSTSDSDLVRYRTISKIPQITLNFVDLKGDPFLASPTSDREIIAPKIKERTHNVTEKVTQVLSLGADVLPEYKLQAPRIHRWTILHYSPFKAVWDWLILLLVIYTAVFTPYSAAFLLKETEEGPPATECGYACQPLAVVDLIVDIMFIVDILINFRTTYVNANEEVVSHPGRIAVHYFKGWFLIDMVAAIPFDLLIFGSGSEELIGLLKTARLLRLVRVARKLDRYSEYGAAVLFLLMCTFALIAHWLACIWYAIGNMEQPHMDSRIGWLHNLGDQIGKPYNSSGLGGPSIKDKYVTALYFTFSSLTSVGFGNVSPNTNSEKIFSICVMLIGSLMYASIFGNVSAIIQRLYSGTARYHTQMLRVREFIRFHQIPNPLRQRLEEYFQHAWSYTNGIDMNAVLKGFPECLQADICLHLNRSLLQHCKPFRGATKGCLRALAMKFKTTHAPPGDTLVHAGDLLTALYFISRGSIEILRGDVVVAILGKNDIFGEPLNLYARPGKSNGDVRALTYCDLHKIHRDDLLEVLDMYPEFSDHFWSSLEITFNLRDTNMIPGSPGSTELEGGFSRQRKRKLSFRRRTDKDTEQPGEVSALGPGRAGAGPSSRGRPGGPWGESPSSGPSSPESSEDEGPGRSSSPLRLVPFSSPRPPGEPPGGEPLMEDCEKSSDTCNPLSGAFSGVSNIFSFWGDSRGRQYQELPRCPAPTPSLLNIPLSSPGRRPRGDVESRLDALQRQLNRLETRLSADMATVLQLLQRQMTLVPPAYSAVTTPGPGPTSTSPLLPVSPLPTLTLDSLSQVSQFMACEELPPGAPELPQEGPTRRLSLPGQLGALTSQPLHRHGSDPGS

SMILES	hERG current change (%, negative = inhibition) at 1uM
O=C(CCCCCN1C(=O)c2cccc3cccc(c23)C1=O)NC1CCS(=O)(=O)C1 (stereo not shown)	7.49%
NNC(=O)CSc1nc(-c2ccccc2)nc2c1CCCC2	7.49%
CC(=O)Nc1ccc(Nc2cc(N3CCOCC3)c3nonc3c2[N+](=O)[O-])cc1	6.96%
CCOCCCn1c(=NC(=O)c2cccnc2)c(C(=O)OCC)cc2c(=O)n3ccccc3nc21	-67.8%
O=C(NCCNC(=O)c1ccccc1[N+](=O)[O-])c1ccccc1[N+](=O)[O-]	16.6%
Cc1cc(NS(=O)(=O)c2ccc(NS(=O)(=O)c3ccc(CC(C)C)cc3)cc2)nc(C)n1	21.3%
CCn1cc(C(=O)O)c(=O)c2cc3c(cc21)OCO3	17.5%
Cn1c(SCC(=O)c2ccc3c(c2)OCCO3)nnc1C(F)(F)F	4.9%
Cc1cccc(N(CC(=O)NC2CCCCC2)C(=O)Cn2nnc(-c3ccc(C)o3)n2)c1	14.3%
CN(C)n1cccc1/C=C(\C#N)S(=O)(=O)c1ccc(Cl)cc1	14%
CC(C)CCNC(=O)C(c1ccncc1)N(C(=O)Cn1nnc(-c2ccc(F)cc2)n1)c1ccccc1F (stereo not shown)	0.123%
Cc1ccc(S(=O)(=O)/C(C#N)=C/c2c(N3CCN(Cc4ccccc4)CC3)nc3ccccn3c2=O)cc1	11%
COc1cc(OC)c(C2Nc3ccccc3NC3=C2C(=O)CC(C)(C)C3)cc1OC (stereo not shown)	13.8%
Cc1ccccc1NC1=NS(=O)(=O)c2ccccc21	7.81%
O=C(/C=C/c1ccccc1)NC(=O)c1ccccc1O	10.3%
CCOc1cc(C2NC(=O)NC(c3ccccc3)=C2C(=O)c2ccccc2)c(Br)cc1OCC(=O)O (stereo not shown)	9.03%
Cc1ccc(-n2nnnc2CSc2nnc(-c3ccc(O)cc3)o2)cc1	0.75%
CC(CN1CCN(C)CC1)OC(=O)c1ccc(F)cc1.Cl (stereo not shown)	4.96%
CCCCCC(=O)Nc1cccc(C2=NOC3(C2)C[C@H](C(N)=O)N(C(=O)c2ccccc2)C3)c1 (stereo partly shown)	11.2%
CC(C)(C)c1ccc(CS(=O)(=O)CC(O)CN2CCCC2=O)cc1 (stereo not shown)	16%
Cl.c1ccc2c(c1)oc1c(NCCN3CCOCC3)ncnc12	7.6%
Cn1c(CC2C(=O)Nc3ccc(Br)cc32)nc2ccccc2c1=O (stereo not shown)	8.92%

SMILES	hERG current change (%, negative = inhibition) at 1uM
Cc1c(C)c2ccc(OCC(=O)NCCCn3ccnc3)c(C)c2oc1=O	-11.1%
COC(=O)Cc1csc(Nc2ccc(Cl)cc2)n1	14.2%
O=C(COc1ccc(S(=O)(=O)N2CCOCC2)cc1)NC1CCCCC1	21.3%
CCN(CC)CCCC(C)NC(=O)c1cccc(S(=O)(=O)N2CCc3ccccc32)c1.Cl (stereo not shown)	-2.88%
CC(C)CC(=O)Nc1c2c(nn1-c1ccc(F)cc1)CSC2	11.5%
CC(C)n1c(NCCO)nc2ccccc21	12%
CCO[C@@H]1OC(C(=O)NCc2ccccc2)=C[C@H](C)[C@H]1CCCO	5.75%
Cc1ccc(-n2nc3c(N4CCC(C(=O)NCc5ccc(C)o5)CC4)nnc(C)c3c2C)cc1	12%
CC(C)(C)NC(=O)C(c1cccs1)N(CC1CCCO1)C(=O)Cn1nnc(-c2cccs2)n1 (stereo not shown)	6.19%
Cc1ccccc1C(=O)N1CCC(C(=O)Nc2ccc(S(=O)(=O)N3CCCC3)cc2)CC1	5.5%
C#CCOc1ccc2c(C)cc(=O)oc2c1	9.48%
COc1cc(NC(=O)CN2C(=O)C(=O)N(C3CCCC3)C2=O)cc(OC)c1	15.7%
CCC(CC)C(=O)Nc1cccc(-c2nc3ccccc3o2)c1	9.45%
COc1cccc(N2CC(NS(=O)(=O)c3cccnc3)CC2=O)c1 (stereo not shown)	7%
O=C(c1nc2ccc(Cl)cn2c1CNCC[C@@H]1C[C@@H]2C=C[C@H]1C2)N1CCCCCCC1	11.2%
O=C(C[n+]1cccc(/C=N/O)c1)N(Cc1ccccc1)Cc1ccccc1.[Cl-]	7.9%
COc1cc(OC)cc(C(=O)Nc2ccccc2S(=O)(=O)N2CCCC2OC(C)=O)c1 (stereo not shown)	8.15%
Cc1cccc(NC(=O)CSc2nnnn2C)n1	12.6%
CC(Oc1ccc(F)cc1)C(O)CCN(C)C (stereo not shown)	12.9%
O=C(/C=C/c1ccc([N+](=O)[O-])cc1)NCc1ccccn1	-10.1%
O=S(=O)(NCc1ccccn1)c1ccc(Cl)s1	13.4%
